The other results are listed elsewhere or left out. One pool of 16,384 single-stranded DNAs met each Rep nickase domain in vitro (3 µM enzyme, 1 h, 37 °C); shown is the middle of each 90-letter strand. Uncut reads are compared with the no-enzyme pool on a log2 scale; uncut sequences lie near 0, cut ones below; no hit call is given. Reads are scaled to the total; values above 0 arise when much of the pool is cut.

This experiment deals with T1, Rep nickase domain of tomato golden mosaic virus.
T1 sequence (residues 1-124 of Rep, tag left off): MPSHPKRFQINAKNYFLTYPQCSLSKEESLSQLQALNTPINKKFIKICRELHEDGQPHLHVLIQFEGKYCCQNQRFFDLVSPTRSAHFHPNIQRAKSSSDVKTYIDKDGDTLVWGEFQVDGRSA
The experiment in a line: uncleaved DNA left, log2 of reads against the no-enzyme library (log2 ratio); higher = less cleavage (more negative = more Rep cleavage of the k-mer); sequences stand for … in CTCGTCCG…ACCGGAGA
How it is done:
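A pool of 90-nt single-stranded DNAs with seven random bases just before the constant AC of the nick site (name = the seven bases) was cut by 3 µM recombinant His6-SUMO-tagged Rep nickase domain (300 nM DNA, 50 mM HEPES pH 8.0, 50 mM NaCl, 1 mM MnCl2, 1 h, 37 °C, three replicates). Uncut DNA was amplified and sequenced.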
On to CGGGGAC, for which the “uncleaved DNA left (log2)” value is 0.176.

With GATCCGT, the “uncleaved DNA left (log2)” value is -0.0237.

For the sequence CAACTAT, the “uncleaved DNA left (log2)” value is -0.143.

GAAGAAA: the “uncleaved DNA left (log2)” value came to 0.0899.

On to AGAGGCT, for which the “uncleaved DNA left (log2)” value amounted to 0.145.

For TCCTCCC, the “uncleaved DNA left (log2)” value is -0.0976.

For the sequence CCTCAGT, the “uncleaved DNA left (log2)” value was -0.0291.

As to TGGCGTT, the “uncleaved DNA left (log2)” value is -0.175.

In the case of GAGATTC, the “uncleaved DNA left (log2)” value is 0.0623.

Regarding CGGAGTT, the “uncleaved DNA left (log2)” value is -0.0821.

In the case of CTCTCTT, the “uncleaved DNA left (log2)” value was -0.128.

As for GACGTGA, the “uncleaved DNA left (log2)” value was -0.0945.

For GCACGTC, the “uncleaved DNA left (log2)” value was -0.015.

As to TAACATC, the “uncleaved DNA left (log2)” value was -0.272.

With GCTGGCT, the “uncleaved DNA left (log2)” value was 0.135.

As to CGTCTTT, the “uncleaved DNA left (log2)” value was -0.102.

With CAAAGAA, the “uncleaved DNA left (log2)” value turned out to be 0.0558.

Take CTAAGCT: the “uncleaved DNA left (log2)” value is -0.121.

Turning to CGTCCGA, the “uncleaved DNA left (log2)” value amounted to 0.0955.

Turning to CACCCCA, the “uncleaved DNA left (log2)” value was -0.216.

In the case of ACACTCC, the “uncleaved DNA left (log2)” value stood at 0.0743.

Take AGATAAA: the “uncleaved DNA left (log2)” value was determined as 0.074.

CATAGAC: the “uncleaved DNA left (log2)” value was determined as 0.0296.

For the sequence GTTCTGG, the “uncleaved DNA left (log2)” value is -0.0662.

As to AGGGGAA, the “uncleaved DNA left (log2)” value was 0.0772.

In the case of ACAGTAG, the “uncleaved DNA left (log2)” value came to 0.152.

For the sequence TTTCACT, the “uncleaved DNA left (log2)” value is -0.107.

For GTGTAAT, the “uncleaved DNA left (log2)” value was 0.184.

As for GGTTGTT, the “uncleaved DNA left (log2)” value was -0.165.

Take TTTCATT: the “uncleaved DNA left (log2)” value is -0.344.

With CAGTGCT, the “uncleaved DNA left (log2)” value is -0.168.

As to ATATTCC, the “uncleaved DNA left (log2)” value was -0.076.

Regarding ACTTACT, the “uncleaved DNA left (log2)” value is -0.0213.

Regarding ATCTTAG, the “uncleaved DNA left (log2)” value came to 0.0226.

For ATGTGTG, the “uncleaved DNA left (log2)” value is -0.106.

In the case of ACAAGCC, the “uncleaved DNA left (log2)” value is 0.106.

Turning to GCCGGGG, the “uncleaved DNA left (log2)” value worked out at 0.117.

Regarding TTTCGGA, the “uncleaved DNA left (log2)” value is 0.0533.

Take GTGCAGG: the “uncleaved DNA left (log2)” value came to 0.108.

For ATCCTGA, the “uncleaved DNA left (log2)” value turned out to be 0.0924.

Values taken from the supplement of paper PMC7826260.
